Assay results published in the supplement of paper PMC10369915.
The list shows a part of the results. Rule as the data show it: active = 3.2 or more and inactive = the rest. Only a few entries rise above the background.

Molecular target: SHP2 C-SH2 domain E139D
Assay: enrichment score (SH2-bound / input frequency) (ratio); bacterial display of known human phosphotyrosine sites (pTyr-Var adds point mutants) read by sequencing; higher = stronger binding; tyrosines were phosphorylated by kinases first
Conditions: peptide library: pTyr-Var
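Also: displayed peptides selected on beads carrying the immobilized SH2 domain, with library peptides lacking any tyrosine serving as negative controls.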

Enrichment score, inactive:
LARNMYDKEYY [MET_Y1230_D1228N] 0.665, LARNMYDKEFF [MET_Y1230_D1228N_YF] 0.326, HFGCVYFGTLL [MET_Y1093_H1094Y_YF] 1.13, MPAVTYTLAMR [MEGF10_Y895_P897L] 0.818, RGKLFYQEVPA [METTL11B_Y76_A72G] 1.24, GQECEYPPTQD [METAP2_Y137] 0.577, GAVGNYSGGLA [MGMT_Y158] 0.634, CDKEFYSVHNK [MET_Y1235_Y1230C_YF] 0.586, AKGMKYLASKK [MET_Y1194] 0.462, ARSHIYTFASC [MEFV_Y741] 0.786, DDKEFYSVHNK [MET_Y1235_Y1230D_YF] 0.813, RSAGKYDVFFI [MECP2_Y120_L124F_YF] 0.734, MFDKEYFSVHN [MET_Y1234_YF] 1.09, LARDMHDKEFF [MET_Y1230_Y1230H_YF] 0.49, RSAGKDDVYLI [MECP2_Y120_Y120D] 0.463, MHDKEYFSVHN [MET_Y1234_Y1230H_YF] 0.608, GQECKYPPTQD [METAP2_Y137_E136K] 0.64, RVQQIYSDSDL [MIB1_Y376] 0.857, HFGCVYLGTLL [MET_Y1093_H1094L] 1.11

Molecular target: SHP2 C-SH2 domain wild-type
Assay: as above
Conditions: peptide library: pTyr-Var

Enrichment score, inactive:
LARNMYDKEYY [MET_Y1230_D1228N] 0.54, LARNMYDKEFF [MET_Y1230_D1228N_YF] 0.277, HFGCVYFGTLL [MET_Y1093_H1094Y_YF] 1.33, MPAVTYTLAMR [MEGF10_Y895_P897L] 1.67, RGKLFYQEVPA [METTL11B_Y76_A72G] 1.14, GQECEYPPTQD [METAP2_Y137] 0.638, GAVGNYSGGLA [MGMT_Y158] 0.716, CDKEFYSVHNK [MET_Y1235_Y1230C_YF] 0.667, AKGMKYLASKK [MET_Y1194] 0.534, ARSHIYTFASC [MEFV_Y741] 0.728, DDKEFYSVHNK [MET_Y1235_Y1230D_YF] 0.494, RSAGKYDVFFI [MECP2_Y120_L124F_YF] 0.635, MFDKEYFSVHN [MET_Y1234_YF] 0.951, LARDMHDKEFF [MET_Y1230_Y1230H_YF] 0.424, RSAGKDDVYLI [MECP2_Y120_Y120D] 0.408, MHDKEYFSVHN [MET_Y1234_Y1230H_YF] 0.692, GQECKYPPTQD [METAP2_Y137_E136K] 0.52, RVQQIYSDSDL [MIB1_Y376] 0.899, HFGCVYLGTLL [MET_Y1093_H1094L] 1.07

Molecular target: SHP2 N-SH2 domain L43F
Assay: as above
Conditions: peptide library: pTyr-Var

Enrichment score, inactive:
LARNMYDKEYY [MET_Y1230_D1228N] 0.499, LARNMYDKEFF [MET_Y1230_D1228N_YF] 0.376, HFGCVYFGTLL [MET_Y1093_H1094Y_YF] 1.37, MPAVTYTLAMR [MEGF10_Y895_P897L] 1.57, RGKLFYQEVPA [METTL11B_Y76_A72G] 1.17, GQECEYPPTQD [METAP2_Y137] 0.495, GAVGNYSGGLA [MGMT_Y158] 0.665, CDKEFYSVHNK [MET_Y1235_Y1230C_YF] 0.838, AKGMKYLASKK [MET_Y1194] 0.506, ARSHIYTFASC [MEFV_Y741] 0.744, DDKEFYSVHNK [MET_Y1235_Y1230D_YF] 0.769, RSAGKYDVFFI [MECP2_Y120_L124F_YF] 0.86, MFDKEYFSVHN [MET_Y1234_YF] 1.01, LARDMHDKEFF [MET_Y1230_Y1230H_YF] 0.981, RSAGKDDVYLI [MECP2_Y120_Y120D] 0.428, MHDKEYFSVHN [MET_Y1234_Y1230H_YF] 0.655, GQECKYPPTQD [METAP2_Y137_E136K] 0.575, RVQQIYSDSDL [MIB1_Y376] 0.863, HFGCVYLGTLL [MET_Y1093_H1094L] 1.67

Molecular target: SHP2 N-SH2 domain T42A
Assay: as above
Conditions: peptide library: pTyr-Var

Enrichment score, inactive:
LARNMYDKEYY [MET_Y1230_D1228N] 0.53, LARNMYDKEFF [MET_Y1230_D1228N_YF] 0.254, HFGCVYFGTLL [MET_Y1093_H1094Y_YF] 0.916, MPAVTYTLAMR [MEGF10_Y895_P897L] 2.45, RGKLFYQEVPA [METTL11B_Y76_A72G] 1.24, GQECEYPPTQD [METAP2_Y137] 0.411, GAVGNYSGGLA [MGMT_Y158] 0.391, CDKEFYSVHNK [MET_Y1235_Y1230C_YF] 0.57, AKGMKYLASKK [MET_Y1194] 0.526, ARSHIYTFASC [MEFV_Y741] 0.664, DDKEFYSVHNK [MET_Y1235_Y1230D_YF] 0.56, RSAGKYDVFFI [MECP2_Y120_L124F_YF] 0.793, MFDKEYFSVHN [MET_Y1234_YF] 0.761, LARDMHDKEFF [MET_Y1230_Y1230H_YF] 0.381, RSAGKDDVYLI [MECP2_Y120_Y120D] 0.516, MHDKEYFSVHN [MET_Y1234_Y1230H_YF] 0.602, GQECKYPPTQD [METAP2_Y137_E136K] 0.55, RVQQIYSDSDL [MIB1_Y376] 0.568, HFGCVYLGTLL [MET_Y1093_H1094L] 0.966

Molecular target: SHP2 N-SH2 domain T52S
Assay: as above
Conditions: peptide library: pTyr-Var

Enrichment score, inactive:
LARNMYDKEYY [MET_Y1230_D1228N] 0.478, LARNMYDKEFF [MET_Y1230_D1228N_YF] 0.333, HFGCVYFGTLL [MET_Y1093_H1094Y_YF] 1.2, MPAVTYTLAMR [MEGF10_Y895_P897L] 1.68, RGKLFYQEVPA [METTL11B_Y76_A72G] 0.973, GQECEYPPTQD [METAP2_Y137] 0.535, GAVGNYSGGLA [MGMT_Y158] 0.567, CDKEFYSVHNK [MET_Y1235_Y1230C_YF] 0.692, AKGMKYLASKK [MET_Y1194] 0.705, ARSHIYTFASC [MEFV_Y741] 0.669, DDKEFYSVHNK [MET_Y1235_Y1230D_YF] 0.689, RSAGKYDVFFI [MECP2_Y120_L124F_YF] 0.768, MFDKEYFSVHN [MET_Y1234_YF] 1.01, LARDMHDKEFF [MET_Y1230_Y1230H_YF] 0.73, RSAGKDDVYLI [MECP2_Y120_Y120D] 0.49, MHDKEYFSVHN [MET_Y1234_Y1230H_YF] 0.64, GQECKYPPTQD [METAP2_Y137_E136K] 0.6, RVQQIYSDSDL [MIB1_Y376] 0.785, HFGCVYLGTLL [MET_Y1093_H1094L] 1.14

Molecular target: SHP2 N-SH2 domain wild-type
Assay: as above
Conditions: peptide library: pTyr-Var

Enrichment score, inactive:
LARNMYDKEYY [MET_Y1230_D1228N] 0.763, LARNMYDKEFF [MET_Y1230_D1228N_YF] 0.624, HFGCVYFGTLL [MET_Y1093_H1094Y_YF] 1.42, MPAVTYTLAMR [MEGF10_Y895_P897L] 1.09, RGKLFYQEVPA [METTL11B_Y76_A72G] 0.985, GQECEYPPTQD [METAP2_Y137] 0.71, GAVGNYSGGLA [MGMT_Y158] 0.584, CDKEFYSVHNK [MET_Y1235_Y1230C_YF] 0.63, AKGMKYLASKK [MET_Y1194] 0.502, ARSHIYTFASC [MEFV_Y741] 0.718, DDKEFYSVHNK [MET_Y1235_Y1230D_YF] 0.768, RSAGKYDVFFI [MECP2_Y120_L124F_YF] 0.621, MFDKEYFSVHN [MET_Y1234_YF] 0.995, LARDMHDKEFF [MET_Y1230_Y1230H_YF] 0.559, RSAGKDDVYLI [MECP2_Y120_Y120D] 0.536, MHDKEYFSVHN [MET_Y1234_Y1230H_YF] 0.845, GQECKYPPTQD [METAP2_Y137_E136K] 0.714, RVQQIYSDSDL [MIB1_Y376] 1.3, HFGCVYLGTLL [MET_Y1093_H1094L] 2.12
